Assay results as given in paper PMC4336329 (PLoS ONE, 2015).
Among all 310,000 compounds or so, about 14,000 (4.5%) showed an effect of 50% or more. Effects have a minus sign here. This is one part of the list.

target: human ether-à-go-go-related gene (hERG) potassium channel (human, UniProt Q12809); assay: primary screen, population patch clamp on CHO cells stably expressing hERG
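Also: peak tail current of the secondary pulse compared with the same well before compound.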

Chain of human ether-à-go-go-related gene (hERG) potassium channel (Q12809 whole entry, looked up): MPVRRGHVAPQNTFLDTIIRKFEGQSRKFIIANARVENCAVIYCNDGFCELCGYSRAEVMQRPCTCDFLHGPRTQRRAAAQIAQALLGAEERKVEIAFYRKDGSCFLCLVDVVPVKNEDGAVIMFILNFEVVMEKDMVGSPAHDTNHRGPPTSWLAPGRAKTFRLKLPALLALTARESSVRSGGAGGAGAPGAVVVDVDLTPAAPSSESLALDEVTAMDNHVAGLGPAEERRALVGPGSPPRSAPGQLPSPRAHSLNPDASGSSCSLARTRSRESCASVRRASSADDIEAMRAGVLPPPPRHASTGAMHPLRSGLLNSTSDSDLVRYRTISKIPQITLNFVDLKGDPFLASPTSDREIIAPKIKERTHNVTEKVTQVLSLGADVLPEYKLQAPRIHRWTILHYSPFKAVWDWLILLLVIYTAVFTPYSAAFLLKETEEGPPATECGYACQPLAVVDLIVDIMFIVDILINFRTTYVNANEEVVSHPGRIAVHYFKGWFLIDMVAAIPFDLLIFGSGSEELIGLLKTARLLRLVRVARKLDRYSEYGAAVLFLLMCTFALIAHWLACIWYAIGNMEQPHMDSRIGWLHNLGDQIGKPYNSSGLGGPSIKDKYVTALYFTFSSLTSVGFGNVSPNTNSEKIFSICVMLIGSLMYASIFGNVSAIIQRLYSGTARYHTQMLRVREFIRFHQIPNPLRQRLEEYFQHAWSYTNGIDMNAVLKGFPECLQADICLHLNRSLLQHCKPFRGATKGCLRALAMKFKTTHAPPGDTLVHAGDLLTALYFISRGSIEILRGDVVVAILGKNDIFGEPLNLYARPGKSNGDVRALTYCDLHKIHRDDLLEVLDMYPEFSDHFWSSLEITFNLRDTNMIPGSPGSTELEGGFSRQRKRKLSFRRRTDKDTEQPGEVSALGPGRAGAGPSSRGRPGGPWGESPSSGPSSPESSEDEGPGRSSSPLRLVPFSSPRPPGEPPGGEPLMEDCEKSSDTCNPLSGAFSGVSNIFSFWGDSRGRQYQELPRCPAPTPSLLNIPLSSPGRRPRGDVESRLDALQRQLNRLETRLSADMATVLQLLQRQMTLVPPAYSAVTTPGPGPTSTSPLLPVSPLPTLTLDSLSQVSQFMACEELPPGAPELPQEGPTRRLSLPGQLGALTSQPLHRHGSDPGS

| Compound | hERG current change (%, negative = inhibition) at 10uM |
| --- | --- |
| Cc1ccc(-n2ncc3c2CC(C)(C)CC3NC(=O)Cc2c(C)noc2C)cc1 (stereo not drawn) | -25.5% |
| CC(=O)Nc1ccc(OC(=O)COc2ccc(Br)cc2)cc1 | 6.16% |
| O=[N+]([O-])c1cc(Cl)ccc1N1CCOCC1 | 26.1% |
| O=C(NNC(=O)c1ccc([N+](=O)[O-])cc1Cl)c1ccncc1 | -13.4% |
| O=C(Nc1ccc(F)cc1)c1ccc(S(=O)(=O)N2CCCC2)cc1 | 2.81% |
| CCOC(=O)N1CCN(c2cc(NCCC(=O)O)c3c4c(onc24)-c2ccccc2C3=O)CC1 | -4.05% |
| CCN(CC)S(=O)(=O)c1ccc(N2CCOCC2)c(NC(=O)C2CSC3(C)CCC(=O)N23)c1 (stereo not drawn) | -30.7% |
| NC(=O)CCN(C(=O)c1cccc(S(=O)(=O)N2CCc3ccccc32)c1)c1ccccc1 | -29.5% |
| CSC1=N/C(=C\c2ccc(C)cc2)C(=O)S1 | -3.52% |
| COc1ccc([N+](=O)[O-])cc1C(=O)NC1CCN(Cc2ccccc2)CC1.Cl.O | -55.3% |
| CCOC(=O)NC(=O)c1cn(-c2ccc(OC)cc2)c(=O)[nH]c1=O | 19.7% |
| O=C(CSCc1c(Cl)cccc1Cl)Nc1ccccc1-c1ccccc1 | -5.25% |
| O=C(NCc1nc2ccccc2[nH]1)C1CCCCC1 | 12.4% |
| COc1ccccc1NC(=O)C1=C(C)NC(=O)NC1c1ccco1 (stereo not drawn) | -15% |
| NS(=O)(=O)c1ccc(NC(=O)c2ccc3c(c2)CCN3S(=O)(=O)c2ccccc2)cc1 | 17.2% |
| COc1ccc(Nc2nc3ccccc3n2C)cc1 | 11.3% |
| CC(=O)Nc1ccc(S(=O)(=O)N(C)Cc2ccccc2)cc1 | -12.7% |
| CCN1CCN(c2nc(Nc3cccc(OC)c3)nc(N)c2[N+](=O)[O-])CC1 | -73.3% |
| COc1ccc(NC(=O)CN(C)C(=O)Cc2c(C)nc3ccccc3c2C)cc1 | -46.1% |
| Cc1cc(C)c2c(n1)sc1c(=O)n(CC(=O)c3ccccc3)cnc12 | -1.31% |
| C/C(Cl)=C/CSc1nnc2n(N)c(=O)c3ccccc3n12 | -37.6% |
| Cc1cc(C)c([C@@H]2C[C@H]3CN(C4CCCC4)C(=O)[C@]34CCCN24)c(-n2cccn2)c1 | -80.7% |

| Compound | hERG current change (%, negative = inhibition) at 10uM |
| --- | --- |
| Cc1ccc(C(=O)Nc2ccc(CN3CCS(=O)(=O)CC3)cc2)cc1C | 5.47% |
| CCOCCCNC(=O)c1cc2sc(Cl)cc2n1CC | -19% |
| CCN(CC)C(=O)CSc1nc2ccccc2c(=O)n1CCC(=O)NCc1ccc(F)cc1 | -23.4% |
| O=C(N/N=C/C1CC=CCC1)c1cc(Br)ccc1O (stereo not drawn) | 16.5% |
| COc1ccc(N(CC(=O)NCc2cccc(OC)c2)S(=O)(=O)c2c(C)noc2C)cc1 | -41.1% |
| Cc1ccc(-c2cc(=O)c3cc(F)ccc3[nH]2)cc1 | 7.02% |
| COc1ccc(C(=O)NC(=S)Nc2ccc(NC(=O)c3ccco3)cc2)cc1[N+](=O)[O-] | 15.8% |
| O=C(/C=C/Nc1cccc([N+](=O)[O-])c1)c1ccco1 | 2.26% |
| CCN(CC)c1ccc(C2Nc3cccc4cccc(c34)N2)cc1 | 4.92% |
| CCN1/C(=C2\C(=O)N(C)C(=S)N2C)C=Cc2cc(OC)ccc21 | -11.8% |
| COC(=O)c1ccccc1NCc1cc(=O)oc2cc(O)c(O)cc12 | 9.61% |
| Cc1ccnc(N2CCC(C(=O)Nc3cccc(C(F)(F)F)c3)CC2)n1 | -22% |
| Cc1cccc(C)c1NC(=O)C1(NC(=O)Cn2cccc([N+](=O)[O-])c2=O)CCCCC1 | 5.49% |
| CCOc1ccccc1OCCC(=O)NNC(=O)Cn1nc(C)cc1C | 0.717% |
| COC(=O)Cc1csc(/N=C/c2c(O)n(-c3cccc(C(F)(F)F)c3)c(=O)c3ccccc23)n1 | 18.6% |
| COC(=O)c1cccc(S(=O)(=O)N2CCC(NC(=O)NC34CC5CC(CC(C5)C3)C4)CC2)c1 | 4.44% |
| CCNC(=O)/C=C/c1ccccc1[N+](=O)[O-] | 8.82% |
| c1cncc(-c2noc(C34CC5CC(CC(C5)C3)C4)n2)c1 | -0.918% |
| COc1ccc(C)cc1NC(=O)CO/N=C(\N)CC(=O)NC1CCCCC1 | -1.54% |
| CSCCC(NC(=O)c1ccc(Cl)cc1Cl)C(=O)NCc1ccccn1 (stereo not drawn) | -8.59% |
| Cl.O=S(=O)(CCc1ccncc1)c1ccc(Cl)cc1 | -6.1% |
| O=C(COc1ccc(Br)cc1)NCC1COc2ccccc2O1 (stereo not drawn) | -20.9% |

| Compound | hERG current change (%, negative = inhibition) at 10uM |
| --- | --- |
| CCN(CC)c1ccc(C(=O)NNC(=O)CNC(=O)c2cccs2)cc1 | 1.25% |
| Cc1ccc(NC(=O)CN2CCc3cc4c(cc3C2)OCCCO4)cc1 | 15.4% |
| COC(=O)c1sccc1NC(=O)c1cnc2cc(C)nn2c1C | 22.4% |
| CCOCCCNC(=O)C1c2cc(OC)c(OC)cc2C(=O)N2CCCCC12 (stereo not drawn) | -4.73% |
| CCc1nnc(NC(=O)C2=CCN(S(=O)(=O)c3ccc(F)cc3)CC2)s1 | 3.92% |
| O=c1[nH]c(/C(Cl)=C/c2cccc(C(F)(F)F)c2)nc2cc(Cl)ccc12 | -8.65% |
| CC1(C)Cc2c(cnn2-c2ccccc2)C(=O)/C1=N\NC(=O)c1ccncc1 | 5.31% |
| COc1ccc(NC(=S)N2CCC(c3nc4ccccc4o3)CC2)c(OC)c1 | -19.2% |
| Nc1nc(-c2ccc3c(c2)CCCC3)c(CC(=O)O)s1 | 15.7% |
| COc1cc(OC)cc(C(=O)Nc2cccc(-c3ccc(N4CCOCC4)nn3)c2)c1 | 14.5% |
| COc1ccc(N2CCN(C(=O)CCc3ccccc3)CC2)cc1 | -9.27% |
| O=C(NCC1CCCO1)c1cccc(NS(=O)(=O)c2ccccc2)c1 (stereo not drawn) | 19.8% |
| CCCCOC1CC(c2ccc(OCc3ccc(OC)cc3)c(OC)c2)N(C)O1 (stereo not drawn) | 3.47% |
| CN(C)c1ccc(/C=C2\C(=O)NC(=O)N(Cc3ccc(F)cc3)C2=O)cc1 | -7.4% |
| CCOC(=O)N1CCC(NC(=O)c2ccc3c(c2)N=C(CC)c2ccccc2S3)CC1 | 9.68% |
| COc1cccc(N2C(=O)CC(NNC(=O)c3cccs3)C2=O)c1 (stereo not drawn) | -35.1% |
| CCCc1nnc(NC(=O)c2c(O)c3c([nH]c2=O)CCCC3)s1 | -2.7% |
| Cc1ccc(NC(=O)Nc2cc(-c3ccccc3)nn2C)cc1Cl | 18.2% |
| COc1cc(/C=N/n2c(C3CCCCC3)n[nH]c2=S)ccc1O | 16.9% |
| CNC(=O)Nc1cc(C)nn1C | 23.7% |
| CCn1cc(C(=O)O)c(=O)c2cc(F)c(N3CCN(C(=S)NC(=O)c4cc(OC)cc(OC)c4)CC3)cc21 | 9.16% |
| Cc1ccc(S(=O)(=O)N2CCCC2CNC(=O)C(=O)Nc2ccc(F)cc2)cc1 (stereo not drawn) | -43.1% |

| Compound | hERG current change (%, negative = inhibition) at 10uM |
| --- | --- |
| c1ccc2c3nnc4n(c-3nc2c1)CCCS4 | -24% |
| COc1ccc(C(=O)CSc2nnc(CNC(=O)c3ccc(OC)c(OC)c3)n2C)cc1 | -6.88% |
| COc1cc(OC)c2c(-c3ccccc3)cc(=O)oc2c1C(CC(=O)N1CCOCC1)c1ccc(N(C)C)cc1 (stereo not drawn) | 1.42% |
| CC(=O)N(CN1C(=O)c2ccccc2C1=O)c1ccccc1 | 9.8% |
| CC(=O)Nc1cccc(NC(=O)Nc2cccc(Cl)c2C)c1 | 29.5% |
| CCCOc1ccc(-c2nnn(CC(=O)Nc3cccc(C(=O)OC)c3)n2)cc1 | 1.61% |
| O=C(N/N=C/c1ccccn1)c1ccc(Cl)cc1 | -23.1% |
| Cc1nc2sccn2c(=O)c1CCN1CCC(=C(c2ccc(F)cc2)c2ccc(F)cc2)CC1 | -78.6% |
| Cc1ccc2nc(-c3sc4nc(C)ccc4c3N)[nH]c2c1 | 9.66% |
| O=C(O)c1ccccc1C(=O)NCC(O)COc1ccc(Cl)cc1 (stereo not drawn) | 2.34% |
| Cc1nnc2ccc(N3CCCCC3)nn12 | 6.15% |
| COc1ccc(-n2nnnc2SCC(=O)N2CCCC2)cc1OC | 12% |
| O=C(Cn1c(=O)oc2ccccc21)Nc1nc(-c2ccccc2)cs1 | 15.2% |
| Cc1noc(/C=C/c2ccco2)c1S(=O)(=O)N1CCC(C(=O)NC(C)c2ccccc2)CC1 (stereo not drawn) | 9.3% |
| CCc1cc2c(=O)c(-c3ccc4c(c3)OCCO4)coc2cc1OS(C)(=O)=O | 12.9% |
| COc1ccc2c(c1)c(CCNNC(=O)C(C)(C)C)c(C)n2C(=O)c1ccc(Cl)cc1 | -21.2% |
| CCC(=O)N/N=C(\C)CC(=O)Nc1ccc(Cl)cc1 | -3.4% |
| CC(=O)c1cccc(NC(=O)C2CCCCC2)c1 | 10.4% |
| CN(C)CCCNCCCNC(=O)c1ccccn1 | -0.317% |
| CC(C)C(=O)NCc1cc(-c2ccccc2)no1 | 16.8% |
| COc1ccc(NC(=O)c2cccc(S(=O)(=O)NCc3ccccc3)c2)cc1S(N)(=O)=O | -6.19% |
